Laboratory results reported in PubChem BioAssay AID1460 (National Center for Advancing Translational Sciences (NCATS), 2008).
Screen size: about 270,000 compounds; about 5,800 (2.1%) were called active. The inconclusive results got no clear call from the source; some entries with a clear call stand among them for comparison. Calls come from the whole dose curve; as a rule, active = well fitted inhibition curve with a large enough effect; inconclusive = small, poorly fitted or top-dose-only effect; inactive = flat fitted curve, though single readings scatter. Potencies of inconclusive entries are doubtful fits and often do not repeat.

The molecules below were run against Microtubule-associated protein tau (Homo sapiens) (UniProt P10636) (assay: qHTS for Inhibitors of Tau Fibril Formation, Thioflavin T Binding). Details: recombinant tau K18 P301L, heparin-induced fibrillization, ThT fluorescence; series mostly up to 57.4 µM; activity, negative = inhibition: at the top concentration.
Procedure, shortened: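 ThT emission at 510 nm, taken 1 hr after adding 30 uM dye, quantifies aggregates formed when 20 uM heparin acts on human tau K18 P301L for 6 hr at 37 C.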
% is set by controls: 0 for no effect and ±100 for the full control effect; potency is the fitted concentration of half-maximal effect; tags give direction and shape of the fitted curve.
Note: nearly all actives have a fitted effect of over 55% in size.

Sequence of UniProt P10636 (P10636 whole entry, looked up): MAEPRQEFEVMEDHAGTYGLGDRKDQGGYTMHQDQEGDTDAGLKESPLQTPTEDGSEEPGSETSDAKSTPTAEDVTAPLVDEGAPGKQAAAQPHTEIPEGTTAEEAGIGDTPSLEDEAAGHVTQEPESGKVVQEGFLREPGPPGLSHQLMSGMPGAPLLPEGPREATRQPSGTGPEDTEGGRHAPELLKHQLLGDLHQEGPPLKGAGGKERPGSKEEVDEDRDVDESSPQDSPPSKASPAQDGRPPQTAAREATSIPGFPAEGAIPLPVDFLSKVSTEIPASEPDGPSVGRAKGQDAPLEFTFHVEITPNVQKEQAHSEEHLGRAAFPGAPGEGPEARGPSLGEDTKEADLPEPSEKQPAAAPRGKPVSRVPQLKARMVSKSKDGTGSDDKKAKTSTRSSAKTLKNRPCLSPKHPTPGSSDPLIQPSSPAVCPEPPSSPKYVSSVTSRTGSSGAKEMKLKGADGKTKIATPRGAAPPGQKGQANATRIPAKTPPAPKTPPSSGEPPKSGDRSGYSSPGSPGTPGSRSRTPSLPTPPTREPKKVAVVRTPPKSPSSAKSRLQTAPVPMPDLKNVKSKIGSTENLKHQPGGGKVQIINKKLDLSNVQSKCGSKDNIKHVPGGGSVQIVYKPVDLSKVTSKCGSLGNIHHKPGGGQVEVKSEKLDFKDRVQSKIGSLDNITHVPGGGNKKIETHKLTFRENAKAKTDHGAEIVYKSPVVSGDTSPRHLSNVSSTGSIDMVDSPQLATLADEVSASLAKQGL

Row | Structure (SMILES) | Potency | activity, negative = inhibition
1 | CCOC(=O)CS(=O)(=O)c1nc(-c2ccccc2)cc(C(F)(F)F)n1 | inconclusive: 39.8 µM [activator, single point] | 
2 | CCn1ccnc1CN(C)Cc1cn(-c2cccc(C)c2)nc1-c1cccc(F)c1 | inconclusive: 14.1 µM [inhibitor, partial curve] | 
3 | Cc1cccc(-c2noc(-c3ccc(NCc4cccnc4)c([N+](=O)[O-])c3)n2)c1 |  | inactive: 8.44%
4 | COc1ccc2[nH]c(I)c(CCNC(C)=O)c2c1 | inactive | 
5 | O=C(Nc1nnc(S(=O)(=O)N2CCCCCC2)s1)c1ccccc1 | active: 14.1 µM | 
6 | COc1ccccc1N(CC(=O)Nc1cc(C)cc(C)c1)S(C)(=O)=O |  | inactive: 4.39%
7 | Cc1cc(NCc2ccc(Cl)cc2)n2cnnc2n1 |  | inactive: -4.51%
8 | CCc1ccc(NS(=O)(=O)c2c(-c3ccccc3)csc2C(=O)OC)cc1 |  | inactive: -8.57%
9 | CCc1ccc2oc(-c3ccc(C)c(NC(=O)c4ccc(C#N)cc4F)c3)nc2c1 |  | inactive: -1.05%
10 | Cc1ccc(CCNC(=O)C2CCN(c3nn4c(=O)cc(C)nc4s3)CC2)cc1 | inconclusive: 3.98 µM [inhibitor, partial curve] | 
11 | COCCNC(=O)c1c(N)sc2c1CCCC2 | active: 28.2 µM | 
12 | Cc1ccc(C(=O)CNc2ccc(F)cc2)cc1 | inconclusive: 8.91 µM [inhibitor, partial curve] | 
13 | CCn1cc2nc(SCc3cccc(C)c3)n(CCc3ccccc3)c(=O)c2n1 | inconclusive: 25.1 µM [inhibitor, single point] | 
14 | C/C(=N\Nc1nc2ccccc2[nH]1)c1ccc(N2CCOCC2)cc1 | inconclusive: 14.1 µM [inhibitor, partial curve] | 
15 | Cc1nc2nc(SCC(=O)NC3CCC(C)CC3)nn2c(C)c1Cc1ccccc1Cl (stereo unspecified) |  | inactive: -13.3%
16 | Cc1csc(NC(=O)CCc2c(C)nc3cc(-c4cccc(F)c4)nn3c2C)n1 | inconclusive: 5.62 µM [inhibitor, full curve, poor fit] | 
17 | CCOc1cc(/C=C2\C(=O)ON=C2C)ccc1OCc1ccccc1 | inconclusive: 12.6 µM [inhibitor, partial curve] | 
18 | COc1ccc(OCc2nc(N)nc(Nc3ccccc3OC)n2)cc1 | inconclusive: 22.4 µM [inhibitor, single point] | 
19 | CCc1ccc2occ(CC(=O)Nc3sc4c(c3C(=O)NCCOC)CCCC4)c2c1 |  | inactive: 5.06%
20 | Cc1noc(-c2ccc(-c3noc(-c4cccc(Cl)c4)n3)cc2)n1 | inconclusive: 25.1 µM [inhibitor, single point] | 
21 | CC(C)[C@@H](CC(=O)N[C@@H]1CCCC[C@H]1C(=O)N[C@H](CC(=O)N[C@@H](CCC(=O)O)CC(=O)O)Cc1ccccc1)NC(=O)C[C@H](CO)NC(=O)[C@@H]1CCCC[C@H]1N |  | inactive: -2.24%
